The results in this text go back to PubChem BioAssay AID1508624 (National Center for Advancing Translational Sciences (NCATS), 2021).

Out of some 48,000 compounds screened, about 120 (0.25%) were called active. About 4% were inconclusive and are not listed. The call rests on the fitted dose curve; in most records, active means well fitted activation curve with a large enough effect; inconclusive means small, poorly fitted or top-dose-only effect, or another doubt; inactive means no such curve, though single readings can be large or run the other way. Some of the results follow.

The test in a line: Primary qHTS for Identification of Small Molecule Activators of Huntingtin-Antisense Promoter Activity. Further: nearly all actives have a fitted effect of over 55% in size. The note with it: HEK293 HTT-AS promoter firefly luciferase reporter (activity 0% = vehicle and -100% = no light), 24 h; series mostly up to 57.5 µM; activity change, positive = activation: at the top concentration. In outline:
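Luminescence was read after Dual-Glo reagent and a 10 min room-temperature incubation. Values were normalized to vehicle (0% activity) and zero RLU (-100% activity). Reporter HEK293 cells had been exposed to compounds (up to 57.5 uM final) for 24 h.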
(qHTS replaces the single test concentration by a dilution series.)
For `CCCCn1cnc2cc(NCc3ccccc3Cl)ccc21`, the “activity change, positive = activation” value is inactive: -9.58%.
Regarding `Cc1ccc(NC(=O)C(=O)NCC(c2cccnc2)N2CCN(Cc3ccccc3)CC2)cc1F` (stereo not drawn), the “activity change, positive = activation” value was inactive: -22.7%.
The same measure for `CCCSCCCNC(=O)C1CCN(c2nc3ccccc3nc2C(F)(F)F)CC1`: inactive: -15.3%; for `CCc1ccccc1NS(=O)(=O)c1ccc2[nH]cc(C(=O)N(CC)Cc3ccccc3)c(=O)c2c1`: inactive: -18.3%.
In the case of `CCCc1ccc(OCC(=O)Nc2sc(C(=O)OCC)c(C)c2C(=O)OCC)cc1` it was inactive: -0.0748%; in that of `Cc1ccc(C)c(N2CCN(S(=O)(=O)c3ccc4c(c3)C(C(C)C)C(=O)N4)CC2)c1` (stereo not drawn), inactive: -33.6%.
As to `CSc1ncc(C(=O)NCc2ccccc2F)c(-c2ccccc2)n1`, the “activity change, positive = activation” value was inactive: -14.3%.
With `COc1cccc(-c2nc(CS(=O)(=O)CC(=O)N3CCN(c4cc(C)ccc4C)CC3)c(C)o2)c1`, the “activity change, positive = activation” value was inactive: -47%.
The same measure for `CCc1ccc(C2CC(=O)c3c([nH]c(C(=O)OC4CCCC4)c3C)C2)cc1` (stereo not drawn): inactive: 13.8%; for `CCOC(=O)c1ccc(CN(Cc2ccc(F)cc2)S(=O)(=O)c2ccc(F)c(C(=O)Nc3c(C)cccc3C)c2)cc1`: inactive: -11.2%; for `COc1ccc(OC)c(C2CC(=O)Nc3c2c(=O)[nH]c2ncnn32)c1` (stereo not drawn): inactive: 1.47%.
The same measure for `COc1ccc(C2NC(=O)N(C)C3=C2C(=O)N(c2ccc(C(=O)O)cc2)C3)cc1` (stereo not drawn): inactive: -3.89%; for `CCOc1ccc(NC(=O)Cn2c(=O)n(CCCCCC(=O)NCc3ccccc3)c(=O)c3sccc32)cc1`: inactive: 1.17%.
The same measure for `CCc1ccc2occ(CC(=O)Nc3c(C(=O)c4ccc(C)cc4)oc4ccccc34)c2c1`: inactive: -5.05%.
On to `COc1ccc(S(=O)(=O)Nc2c(C)nc3nc[nH]n3c2=O)cc1`, for which the “activity change, positive = activation” value is inactive: -2.17%.
In the case of `O=[N+]([O-])c1cccc(S(=O)(=O)NCCNS(=O)(=O)c2cccc([N+](=O)[O-])c2)c1` it was inactive: -20%.
The same measure for `Cc1ccc2c(CNCc3ccc(C)o3)c(C(=O)O)n(Cc3ccccc3C)c2c1`: inactive: -28%; for `COC(=O)c1ccccc1NC(=O)C1=CC(c2cccs2)=NS(=O)(=O)N1C`: inactive: -19.5%; for `COc1ccc(-n2nc3cc(C)c(NC(=O)c4ccc(-c5ccc(Cl)cc5)o4)cc3n2)cc1`: inactive: 8.03%.
In the case of `Cc1cc(OCC(=O)Nc2cc(-c3nc4ncccc4o3)ccc2C)ccc1Cl` it was inactive: 2.48%; in that of `Cc1ccc(S(=O)(=O)c2nnn(-c3ccc(F)c(Cl)c3)c2N)cc1`, inactive: -23.4%; in that of `COc1ccc(OCc2ccc(-c3nc(C#N)c(NC(C)c4ccccc4)o3)o2)cc1` (stereo not drawn), inactive: -13.6%.
Consider `CCOc1ccc2nc(N3CCCC(C(=O)NCCc4ccc(OCC)c(OCC)c4)C3)sc2c1` (stereo not drawn), for which the “activity change, positive = activation” value was inactive: 23.3%.
The same measure for `Cc1cccc(C)c1Nc1c(-c2ccccn2)nc2c(C)cccn12`: inactive: -32%; for `Cc1nn(CC(=O)Nc2ccc(OC(F)(F)F)cc2)c(=O)c2c(C)n(-c3ccc(Cl)cc3)nc12`: inactive: -24.4%; for `COc1ccc(CCNC(=O)c2nc(-c3ccc(Cl)cc3)n3c2CCCCC3)c(OC)c1`: inactive: -30%.
In the case of `O=C(Cc1cccs1)NC1CC(=O)N(c2ccc(F)cc2)C1` (stereo not drawn) it was inactive: -15.4%.
In the case of `COc1ccc(-c2nc3ccccc3s2)cc1NC(=O)c1ccccc1F` it was inactive: -9.41%; in that of `Cc1oc(-c2ccc(C(=O)NCc3ccccc3)cc2)nc1CN1CCc2ccccc21`, inactive: -37.1%.
In the case of `COc1ccc(-c2csc3ncnc(Nc4cccc(OC)c4)c23)cc1`, the “activity change, positive = activation” value was inactive: -10.5%.
Consider `CSc1cccc(NC(=O)Nc2ccccc2OCc2cc(=O)n3cc(C)ccc3n2)c1`, for which the “activity change, positive = activation” value was inactive: 17.3%.
In the case of `CCOCCCNC(=O)c1ccc(-n2c(-c3ccccc3)cc3c2CCC(C)C3)cc1` (stereo not drawn) it was inactive: -47.9%; in that of `CCC(=O)N1CCc2cc(Br)cc(S(=O)(=O)CCC(=O)N3CCN(c4cccc(C)c4)C(C)C3)c21` (stereo not drawn), inactive: 1.06%; in that of `CCc1ccc(S(=O)(=O)Nc2ccc3c(c2)n(C)c(=O)c(=O)n3C)cc1`, inactive: -36.7%.
`Cc1cc(N)c2cc(NC(=O)Nc3ccc4nc(C)cc(N)c4c3)ccc2n1`: the “activity change, positive = activation” value was inactive: -11%.
In the case of `Cc1ccc2c(c1)C(c1ccc(F)cc1)N(C(=O)c1ccc(S(=O)(=O)N3CCCCC3)cc1)CC(=O)N2` (stereo not drawn) it was inactive: -21.4%; in that of `COc1ccc(C(=O)Nc2ccc3nc(SCC(=O)N4CCc5ccccc54)sc3c2)cc1`, inactive: -16.7%.
The same measure for `COc1ccc(NC(=O)CCNS(=O)(=O)c2ccc3c(c2)CCCC(=O)N3)cc1Cl`: inactive: -21.3%; for `O=C(NCc1ccc(Cl)cc1)NCc1noc2ccccc12`: inactive: 18.8%.
In the case of `COc1ccc(CNC(=O)c2cc3c(=O)n(Cc4cccnc4)ccc3nc2C)cc1` it was inactive: -14.5%.
In the case of `COc1ccccc1CNC(=O)c1cc2c(=O)oc3ccc(C)cc3c2s1`, the “activity change, positive = activation” value is inactive: 19.8%.
The same measure for `COc1ccccc1CCNC(=O)Cc1ccc(NC(=O)N2CCSc3ncccc32)cc1`: inactive: -20.2%.
The same measure for `CCCNS(=O)(=O)c1cc(-c2nn3c(C)nnc3c3ccccc23)ccc1C`: inactive: -20.5%; for `Cc1ccc(-n2c(=O)c3c4c(sc3n(Cc3cc(=O)n5cc(Cl)ccc5n3)c2=O)CCC4)cc1C`: inactive: 13.4%; for `CCOC(=O)c1ccccc1NC(=O)CN(c1cccc(C)c1C)S(=O)(=O)c1ccccc1`: inactive: -29.4%.
With `CCc1ccc(-c2nn(CC(=O)NC3CCCCC3)c3c2cnc2ccc(F)cc23)cc1`, the “activity change, positive = activation” value is inactive: 7.59%.
Consider `CC(=O)N1CCCc2cc(S(=O)(=O)N3CCCC(C(=O)NCc4ccccc4Cl)C3)ccc21` (stereo not drawn), for which the “activity change, positive = activation” value was inactive: -32.2%.
In the case of `CCOc1ccccc1NC(=O)C1CCN(S(=O)(=O)c2ccc3[nH]c(=O)oc3c2)CC1` it was inactive: -21.6%.
